# In PubChem BioAssay AID686971 (National Center for Advancing Translational Sciences (NCATS), 2013):
# In all, about 360,000 compounds went through this assay and about 7,500 (2.1%) were called active. This list was built around the results that the source calls inconclusive (neither active nor inactive); the mix of calls is not that of the screen. Calls follow the shape of the dose curve; as a rule, active = well fitted cell-killing curve with a large enough effect; inconclusive = small, poorly fitted or top-dose-only effect, or effect the other way, or another doubt; inactive = no such curve, though single readings can be large or run the other way. Potencies of inconclusive entries are left out as doubtful fits.
# Experiment: qHTS for induction of synthetic lethality in tumor cells producing 2HG: qHTS for the HT-1080-IDH1KD cell line
# Conditions: HT-1080 IDH1 knockdown viability, ATP luminescence, 48 h; series mostly up to 46.1 µM
# How it was run: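 HT-1080-IDH1KD cells (IDH1 knocked down), 750/well in RPMI with 5% FBS, treated with compound 48 h at 37 degrees C. Viability by CellTiter-Glo luminescence, normalised to DMSO and no-cell wells; concentration-response curves classed.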
# Potency is read from the fitted curve at half-maximal effect; tags tell the direction and shape of the fitted curve.
row,SMILES,Potency
1,CC(C)CCn1c(NCCc2ccccc2)nc2c1c(=O)n(C)c(=O)n2C,"inconclusive [cytotoxic, single point]"
2,Cc1ccccc1C(=O)Nc1cccc(NC(=O)Cn2cnc3c(=O)n(C)c(=O)n(C)c32)c1,active: 11.2 µM
3,CCOc1ccc(N/C(N)=N/c2nc(C)cc(C)n2)cc1,inactive
4,Cc1ccc(Cl)c(OCCCCN(C)Cc2ccccc2)c1,"inconclusive [cytotoxic, partial curve]"
5,CCC(=O)N(CCC(Cc1ccccc1)c1ccc2c(c1)OCO2)Cc1ccccc1F (stereo not given),"inconclusive [cytotoxic, partial curve]"
6,COc1cc(-c2cnc3c(NC=O)cc(-c4cccc(C(F)(F)F)c4)cn23)cc(OC)c1OC,"inconclusive [cytotoxic, full curve]"
7,COc1ccc(C2CC(=O)C3=C(C2)NC(C)=C(C(=O)Nc2ccccc2C)C3c2coc3ccc(C)cc3c2=O)cc1OC (stereo not given),"inconclusive [cytotoxic, single point]"
8,CCN(CC)CCNCc1cc(Cl)ccc1OCc1ccccc1F,"inconclusive [cytotoxic, single point]"
9,Cc1onc(-c2c(Cl)cccc2Cl)c1CO/N=C(\C#N)c1c(Cl)cccc1Cl,"inconclusive [cytotoxic, partial curve]"
10,Cc1ccc(S(=O)(=O)N2C[C@H]3n4c(=O)ccc(=O)n4C[C@H](OC(=O)NC4CC4)[C@@]3(O)C2)cc1,inactive
11,Cc1ccc(C(=O)C[n+]2cc(-c3ccc(C)cc3)n3c2CCCCC3)cc1,active: 18.4 µM
12,CC(C)c1ccc(NC(=O)C2(C)Cc3c(-c4ccc5c(c4)OCO5)ccnc3O2)cc1 (stereo not given),inactive
13,COc1ccccc1OCC(=O)N/N=C(\C)c1ccc2ccccc2c1,"inconclusive [cytotoxic, single point]"
14,COc1ccc(-c2nc3c(C)cc(Br)cn3c2Cc2cccc(Cl)c2)cc1OC,"inconclusive [cytotoxic, single point]"
15,COc1cc(NS(=O)(=O)c2ccc(N/C=C\C(=O)c3ccc(OC)c(OC)c3)cc2)nc(OC)n1,"inconclusive [cytotoxic, single point]"
16,O=C1OC(Nc2nc(-c3ccc(F)cc3)cs2)c2ccccc21 (stereo not given),active: 23.1 µM
17,COC(=O)C1CCN(C(=O)c2ccc(OC)c(S(=O)(=O)N3CCCc4ccccc43)c2)CC1,inactive
18,Nc1sc(-c2ccccc2)cc1-c1n[nH]c(=S)n1C1CCCCC1,active: 1.46 µM
19,O=C1/C(=C/c2c[nH]c3ccccc23)CCC/C1=C\c1c[nH]c2ccccc12,"inconclusive [cytotoxic, single point]"
20,COc1ccccc1C(=O)NC(CCSC)C(=O)NCc1ccncc1 (stereo not given),inactive
21,COCCCNC(=S)N/N=C/c1cccc(OC)c1O,"inconclusive [cytotoxic, full curve, poor fit]"
22,Cc1cc(C)n(-c2nc(N(C)C)nc(N(C)C)n2)n1,active: 6.31 µM
23,Cn1c(=N)n(CC(=O)c2cccs2)c2ccccc21,inactive

row,SMILES,Potency
1,CCOC(=O)N1CCc2c(sc3c2c(=O)n(Cc2ccccc2)c(=O)n3Cc2ccc(C)cc2)C1,inactive
2,O=c1[nH]c(Cc2cccs2)nc2scc(-c3ccc(Cl)cc3)c12,inactive
3,Cc1ccc(-c2noc(C3CCN(C(=O)Nc4ccc(C#N)cc4)CC3)n2)o1,"inconclusive [cytotoxic, single point]"
4,N#CC1=C2SCC(O)(c3ccccc3)N2C(=O)CC1c1cccs1 (stereo not given),active: 0.355 µM
5,CCc1ccc2nc(SCC(=O)N3CC(=O)Nc4ccccc43)c(C#N)cc2c1,active: 5.8 µM
6,COc1ccc(C(=O)c2ccc(OC)c3cccc(O)c23)cc1OC,"inconclusive [cytotoxic, single point]"
7,NCCCN(Cc1ccc(Cl)c(Cl)c1)c1ccc(Br)cn1,active: 11.2 µM
8,Nc1nnc(CC(=O)N/N=C/c2ccccc2OCc2ccccc2F)s1,"inconclusive [cytotoxic, single point]"
9,Cc1ccc2nc(C3CCCN(C(=S)Nc4cccc(C)c4C)C3)[nH]c2c1 (stereo not given),"inconclusive [cytotoxic, single point]"
10,CCN(CC(=O)Nc1cc(Cl)ccc1C)C(=O)c1cc([N+](=O)[O-])ccc1N1CCOCC1,inactive
11,CCOC(=O)c1ccc(NC(=O)c2cccnc2)cc1,active: 14.6 µM
12,Nc1ccc(CC(N)c2csc(Nc3cc(Oc4ccccc4)ncn3)n2)cc1 (stereo not given),"inconclusive [cytotoxic, single point]"
13,NS(=O)(=O)c1ccc(NC(=O)COC(=O)c2cn(-c3ccccc3)nc2-c2ccccc2)cc1,"inconclusive [cytotoxic, single point]"
14,O=C(CCl)N(C/C=C/c1ccccc1)c1ccc2c(c1)OCCO2,"inconclusive [cytotoxic, full curve, poor fit]"
15,CCOc1ccc(-c2cc3nc(C4CCN(C(=O)OC(C)(C)C)CC4)c(C(=O)O)cn3n2)cc1,"inconclusive [cytotoxic, single point]"
16,CCOC(=S)SCC(=O)Nc1nc(-c2ccccc2)cs1,"inconclusive [cytotoxic, single point]"
17,CC(CN1CCN(CCOCCO)CC1)CN1c2ccccc2Sc2ccc(Cl)cc21 (stereo not given),"inconclusive [cytotoxic, single point]"
18,CCC(CC)C(=O)c1c[nH]c(C(=O)NCc2ccncc2)c1,inactive
19,O=C1NN=C(c2ccc(Cl)cc2)CC1c1cccc(Br)c1 (stereo not given),"inconclusive [cytotoxic, single point]"
20,CC(C(=O)Nc1ccccn1)N1C(=O)c2ccccc2S1(=O)=O (stereo not given),inactive
21,COC(=O)c1ccc(-c2nc3ccc(C)cc3o2)cc1,"inconclusive [cytotoxic, partial curve]"
22,O=C(/C(=N/N=C/c1ccc(O)c(O)c1O)c1ccccc1)c1ccccc1,"inconclusive [cytotoxic, partial curve, poor fit]"
